Results taken from the supplement of paper PMC10670038.
Where a name gives a salt, the structure may show the parent alone. ± gives the standard deviation of the averaged measurements. Over roughly 2,000 compounds, “relative cell viability vs DMSO, compound alone” has its median near 1.1; the lowest 2% begin near 0.29. The list shows a part of the results.

Each molecule was assayed on TE10 (assay: relative cell viability vs DMSO, compound alone (fraction); TE10 is an esophageal squamous carcinoma line; higher = less cytotoxic). Settings: 2 µM; 48 h.
Protocol: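 TE10 ESCC cells (1,000/well, 384-well plates) were treated with Selleck bioactive library compounds at 2 uM alone for 48 h. Viability was read by CellTiter-Glo and expressed relative to DMSO wells. Two technical replicates (A, B).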

SMILES	relative cell viability
NC[C@@](O)(c1ccc(Cl)cc1)c1ccc(-c2cn[nH]c2)cc1	0.94 ± 0.0015
O=c1c(O)c(-c2ccc(O)cc2)oc2cc(O)cc(O)c12 [Kaempferol]	1.14 ± 0.054
CCN(CC)C(=O)C1(c2ccccc2)CC1CN (stereo unspecified) [Milnacipran HCl]	1.01 ± 0.048
Cc1cc(C(C)(C)C)cc(C)c1CC1=NCCN1 [Xylometazoline HCl]	1.11 ± 0.037
COc1cc(NC(=O)c2ccccn2)ccc1Cl	1.01 ± 0.05
CCN(CC)CCOCCOC(=O)C1(c2ccccc2)CCCC1 [Pentoxyverine Citrate]	1.13 ± 0.073
CC#CCn1c(N2CCC[C@@H](N)C2)nc2c1c(=O)n(Cc1nc(C)c3ccccc3n1)c(=O)n2C [Linagliptin]	1.09 ± 0.041
O=C(/C=C/c1cccc(S(=O)(=O)Nc2ccccc2)c1)NO [Belinostat (PXD101)]	0.216 ± 0.0062
CNC(=O)c1c(F)cccc1Nc1nc(Nc2cc3c(cc2OC)CCN3C(=O)CN(C)C)nc2[nH]ccc12	1.06 ± 0.052
CC(C)(C)c1cc(NC(=O)Nc2ccc(-c3cn4c(n3)sc3cc(OCCN5CCOCC5)ccc34)cc2)no1 [Quizartinib (AC220)]	0.594 ± 0.04
CC1(C)Cc2c(-c3ccccc3)c(-c3ccc(Cl)cc3)c(CC(=O)O)n2C1 [Licofelone]	1.052 ± 0.0016
CN1CCN2c3ncccc3Cc3ccccc3C2C1 (stereo unspecified) [Mirtazapine]	0.865 ± 0.018
CC[C@H](NC(=O)[C@H](C)NC)C(=O)N1C[C@@H](O)C[C@H]1Cc1c(-c2[nH]c3cc(F)ccc3c2C[C@@H]2C[C@H](O)CN2C(=O)[C@H](CC)NC(=O)[C@H](C)NC)[nH]c2cc(F)ccc12 [Birinapant]	0.801 ± 0.017
CC(C)N(CC[C@H](c1ccccc1)c1cc(CO)ccc1O)C(C)C	1.08 ± 0.014
CC(C)[C@H](N)C(=O)OCCOCn1cnc2c(=O)nc(N)[nH]c21 [Valaciclovir HCl]	0.904 ± 0.03
Cc1cc(C)nc(NS(=O)(=O)c2ccc(N)cc2)n1 [Sulfamethazine]	1.1 ± 0.044
CC1(C)O[C@@H]2C[C@H]3[C@@H]4C[C@H](F)C5=CC(=O)C=C[C@]5(C)[C@@]4(F)[C@@H](O)C[C@]3(C)[C@]2(C(=O)CO)O1 [Fluocinolone Acetonide]	0.997 ± 0.025
CC(C)(Oc1ccc(Cl)cc1)C(=O)OCCOC(=O)c1cccnc1 [Etofibrate]	1.06 ± 0.026
CCn1c(=O)c2c(nc(/C=C/c3ccc(OC)c(OC)c3)n2C)n(CC)c1=O [Istradefylline]	1.17 ± 0.08
CC(C(O)c1ccc(O)cc1)N1CCC(Cc2ccccc2)CC1 (stereo unspecified) [Ifenprodil Tartrate]	0.999 ± 0.018
C[C@@H]1C/C=C/C=C/C=C/C=C/[C@H](O[C@@H]2O[C@H](C)[C@@H](O)[C@H](N)[C@@H]2O)C[C@@H]2O[C@](O)(C[C@@H](O)C[C@H]3O[C@@H]3/C=C/C(=O)O1)C[C@H](O)[C@H]2C(=O)O [Natamycin]	1.24 ± 0.018
Nc1nc(=O)n([C@@H]2CS[C@H](CO)O2)cc1F [Emtricitabine]	1.06 ± 0.076
COc1ccc(Cl)cc1C(=O)NCCc1ccc(S(=O)(=O)NC(=O)NC2CCCCC2)cc1 [Glyburide]	1.05 ± 0.035
CC[C@@H]1C(=O)N(C)c2cnc(Nc3ccc(C(=O)N[C@H]4CC[C@H](N5CCN(CC6CC6)CC5)CC4)cc3OC)nc2N1C(C)C [Volasertib (BI 6727)]	0.771 ± 0.011

SMILES	relative cell viability
CCc1cccc(CC)c1NC(=O)N1Cc2[nH]nc(NC(=O)c3ccc(N4CCN(C)CC4)cc3)c2C1	1.06 ± 0.054
CC#C[C@]1(O)CC[C@H]2[C@@H]3CCC4=CC(=O)CCC4=C3[C@@H](c3ccc(N(C)C)cc3)C[C@@]21C [Mifepristone]	0.976 ± 0.051
COC(=O)C1=CO[C@@H](O)[C@@H]2C(CO)=CC[C@H]12 [Genipin]	1.1 ± 0.047
Cc1nc(C(=O)NCC(=O)O)c(O)c2ccc(Oc3ccccc3)cc12	0.905 ± 0.26
CCOC(=O)C1=C(N)Oc2ccc(Cl)cc2C1C(C#N)C(=O)OCC (stereo unspecified)	1.12 ± 0.035
COc1cccc2c1C(=O)c1c(O)c3c(c(O)c1C2=O)C[C@@](O)(C(=O)CO)C[C@@H]3O[C@H]1C[C@H](N)[C@H](O[C@@H]2CCCCO2)[C@H](C)O1 [Pirarubicin]	0.5943 ± 0.0018
CCCCCCNC(=O)n1cc(F)c(=O)[nH]c1=O [Carmofur]	0.971 ± 0.23
C[C@H](CCC(=O)O)[C@H]1CC[C@H]2[C@@H]3C[C@H](O)[C@@H]4C[C@H](O)CC[C@]4(C)[C@H]3CC[C@]12C [Hyodeoxycholic acid (HDCA)]	1.12 ± 0.015
N=C(N)c1ccc(N=NNc2ccc(C(=N)N)cc2)cc1 [Diminazene Aceturate]	1.1 ± 0.018
NC(=O)Nc1sc(-c2ccc(F)cc2)cc1C(N)=O	0.98 ± 0.072
CC(C)(C)OC(=O)N[C@H]1CCCCC/C=C\[C@@H]2C[C@@]2(C(=O)NS(=O)(=O)C2CC2)NC(=O)[C@@H]2C[C@@H](OC(=O)N3Cc4cccc(F)c4C3)CN2C1=O [Danoprevir (ITMN-191)]	1.194 ± 0.0044
CCCC(=O)Nc1ccc(OCC(O)CNC(C)C)c(C(C)=O)c1 (stereo unspecified) [Acebutolol HCl]	1.01 ± 0.2
COc1ccnc2[nH]cc(C(=O)C(=O)N3CCN(C(=O)c4ccccc4)C[C@H]3C)c12	1.16 ± 0.027
C[C@@H]1O[C@@H](OC[C@H]2O[C@@H](Oc3c(-c4ccc(O)c(O)c4)oc4cc(O)cc(O)c4c3=O)[C@H](O)[C@@H](O)[C@@H]2O)[C@H](O)[C@H](O)[C@H]1O [Rutin]	1.08 ± 0.071
CN1[C@@H]2CC[C@H]1C[C@@H](OC(c1ccccc1)c1ccccc1)C2 [Benztropine mesylate]	1.08 ± 0.096
CO/N=C(\C(=O)N[C@@H]1C(=O)N2C(C(=O)O)=C(CSC(=O)c3ccco3)CS[C@H]12)c1csc(N)n1 [Ceftiofur HCl]	0.997 ± 0.043
COc1nc(C)cnc1NS(=O)(=O)c1cccnc1-c1ccc(-c2nnco2)cc1 [Zibotentan (ZD4054)]	1.183 ± 0.011
C/C(O)=C(\C#N)C(=O)Nc1ccc(C(F)(F)F)cc1 [Teriflunomide]	1.02 ± 0.018
Nc1nccc2c1ncn2C1C=C(CO)C(O)C1O (stereo unspecified) [3-Deazaneplanocin A (DZNeP)]	0.908 ± 0.019
Cc1nc(N(C)C(=O)Cc2ccc(-c3ccccn3)cc2)sc1S(N)(=O)=O [Pritelivir (BAY 57-1293)]	1.11 ± 0.032
Cn1cc(/C=C/C(=O)c2cccc(F)c2)cc1/C=C/C(=O)NO	1.11 ± 0.077
N[C@@H](CC(=O)N1CCn2c(nnc2C(F)(F)F)C1)Cc1cc(F)c(F)cc1F [Sitagliptin phosphate monohydrate]	1.17 ± 0.047
C[C@@H]1O[C@@H](O[C@H]2[C@H](Oc3cc(O)c4c(c3)O[C@H](c3ccc(O)cc3)CC4=O)O[C@H](CO)[C@@H](O)[C@@H]2O)[C@H](O)[C@H](O)[C@H]1O [Naringin]	1.02 ± 0.027
Cn1cc(C2=C(c3cn(CCCSC(=N)N)c4ccccc34)C(=O)NC2=O)c2ccccc21 [Ro 31-8220 Mesylate]	1.04 ± 0.0087

SMILES	relative cell viability
CNCC[C@@H](Oc1ccccc1C)c1ccccc1 [Atomoxetine HCl]	1.04 ± 0.013
Cc1ccc(C(=O)C(C)CN2CCCCC2)cc1 (stereo unspecified) [Tolperisone HCl]	1.01 ± 0.049
NS(=O)(=O)C#Cc1ccccc1 [Pifithrin-μ]	0.726 ± 0.036
C[C@@H](Oc1cc(-c2cnn(C3CCNCC3)c2)cnc1N)c1c(Cl)ccc(F)c1Cl	0.997 ± 0.053
Cc1cc(Nc2ncc(Cl)c(Nc3ccccc3S(=O)(=O)C(C)C)n2)c(OC(C)C)cc1C1CCNCC1	0.9178 ± 0.0036
O=C(O)Cc1cc(I)c(Oc2ccc(O)c(I)c2)c(I)c1 [Tiratricol]	1.17 ± 0.032
CCC(CC)(NC(=O)C(C)C)C(=O)N[C@@H](CCCN=C(N)N)C(=O)NC1(C(=O)NC(c2ccc(F)cc2)c2ccc(F)cc2)CCCC1	1.067 ± 0.0047
CCCc1nc2c(C)cc(-c3nc4ccccc4n3C)cc2n1Cc1ccc(-c2ccccc2C(=O)O)cc1 [Telmisartan]	1.02 ± 0.046
COCCCOc1cc(C[C@@H](C[C@H](N)[C@@H](O)C[C@H](C(=O)NCC(C)(C)C(N)=O)C(C)C)C(C)C)ccc1OC [Aliskiren Hemifumarate]	1.19 ± 0.037
Cc1ccc(C(=O)N(CCCN)[C@@H](c2nc3cc(Cl)ccc3c(=O)n2Cc2ccccc2)C(C)C)cc1	0.967 ± 0.04
CC1=CC(=O)c2ccccc2C1=O [Menadione]	0.981 ± 0.01
CC(=O)/N=c1/sc(S(N)(=O)=O)nn1C [Methazolamide]	1.2 ± 0.061
COc1cc2ncnc(Nc3ccc(F)c(Cl)c3)c2cc1NC(=O)/C=C/CN1CCCCC1	1.03 ± 0.014
CCCCC1C(=O)N(c2ccccc2)N(c2ccccc2)C1=O [Phenylbutazone]	0.943 ± 0.022
Nc1ncnc2c1nc(Br)n2[C@@H]1O[C@@H]2COP(=O)(O)O[C@H]2[C@H]1O [8-Bromo-cAMP]	0.858 ± 0.024
CN(C)c1cc(NC(=O)CNC(C)(C)C)c(O)c2c1CC1CC3C(N(C)C)C(=O)C(C(N)=O)=C(O)C3(O)C(=O)C1=C2O (stereo unspecified) [Tigecycline]	1.111 ± 0.0089
COc1cc2c(cc1Cc1cccc(Cl)c1F)c(=O)c(C(=O)O)cn2[C@H](CO)C(C)C [Elvitegravir (GS-9137, JTK-303)]	1.0429 ± 0.00053
COc1ccc2cc3[n+](cc2c1OC)CCc1cc2c(cc1-3)OCO2 [Berberine HCl]	1.22 ± 0.017
Cn1sc(=O)n(Cc2ccccc2)c1=O	1.06 ± 0.025
CC(=O)NC[C@H]1CN(c2ccc(N3CCOCC3)c(F)c2)C(=O)O1 [Linezolid]	1.11 ± 0.068
Cc1nccn1CC1CCc2c(c3ccccc3n2C)C1=O (stereo unspecified) [Ondansetron HCl]	1.19 ± 0.11
COc1ccc2c(c1)c(CC(=O)OCC(=O)O)c(C)n2C(=O)c1ccc(Cl)cc1 [Acemetacin]	1.13 ± 0.021
CC1=C(C(=O)O)N2C(=O)[C@@H](NC(=O)[C@H](N)c3ccccc3)[C@H]2SC1 [Cephalexin]	1.159 ± 0.004
